Measurements from PMC11995724, “Antibiotic target discovery by integrated phenotypic and activity-based profiling of electrophilic fragments” (Cell chemical biology, 2025).
Screen size: about 3,200 compounds; about 110 (3.4%) showed an effect of 50% or more. This is one part of the list.

system: T1, V. cholerae SAD30; design: species or system S. aureus MSSA476 (TSB) or V. cholerae SAD30 (LB); 384-well bacterial growth screen at 25 uM, OD600 relative to DMSO control; conditions: relative growth, OD600, LB; 25 µM; inhibitor
T1 construct: SAD30

Compound | % of control remaining
COc1ccc(NC(=O)C(C#N)=Cc2cnc3c(C)cccn23)cc1 [9-L03, 2-cyano-N-(4-methoxyphenyl)-3-{8-methylimidazo[1,2-a]pyridin-3-yl}prop-2-enamide] | 95.7852%
O=C1C=CC(=O)N1c1ccc(F)cc1 [10-M10, 1-(4-fluorophenyl)-2,5-dihydro-1H-pyrrole-2,5-dione] | 16.8323%
C=CC(=O)N1CCn2c(nnc2C2CCCC2)C1 [3-C09, 1-{3-cyclopentyl-5H,6H,7H,8H-[1,2,4]triazolo[4,3-a]pyrazin-7-yl}prop-2-en-1-one] | 106.558%
C=CC(=O)N(Cc1cn(C)cn1)[C@H]1CCCc2ccc(C)cc21 [1-J11, N-[(1S)-7-methyl-1,2,3,4-tetrahydronaphthalen-1-yl]-N-[(1-methyl-1H-imidazol-4-yl)methyl]prop-2-enamide] | 84.3049%
CN(CC(=O)Nc1cccc(Cl)c1)C(=O)CCl [5-F18, 2-chloro-N-{[(3-chlorophenyl)carbamoyl]methyl}-N-methylacetamide] | 84.0601%
CC(Cl)C(=O)NC1(C(=O)Nc2ccccc2)CC1 (stereo not shown) [7-K14, 1-(2-chloropropanamido)-N-phenylcyclopropane-1-carboxamide] | 78.2422%
C=CC(=O)N(Cc1cn(C)nc1C)c1ccc2c(c1)OCCO2 [1-P13, N-(2,3-dihydro-1,4-benzodioxin-6-yl)-N-[(1,3-dimethyl-1H-pyrazol-4-yl)methyl]prop-2-enamide] | 97.3094%
Cc1cc(CN(Cc2cnn(C)c2)C(=O)CCl)ccc1Cl [5-G12, 2-chloro-N-[(4-chloro-3-methylphenyl)methyl]-N-[(1-methyl-1H-pyrazol-4-yl)methyl]acetamide] | 89.9443%
CN(CC(=O)Nc1ccc(Cl)cc1)C(=O)CCl [4-D03, 2-chloro-N-{[(4-chlorophenyl)carbamoyl]methyl}-N-methylacetamide] | 115.419%
O=C(CCl)NC(c1ccccc1)C1CCCC1 (stereo not shown) [6-O18, 2-chloro-N-[cyclopentyl(phenyl)methyl]acetamide] | 92.0656%
O=C(CCl)N1N=C(c2cccs2)CC1c1cccs1 (stereo not shown) [4-O18, 1-[3,5-bis(thiophen-2-yl)-4,5-dihydro-1H-pyrazol-1-yl]-2-chloroethan-1-one] | 111.624%
C=CC(=O)N1CCCC(S(C)(=O)=O)C1 (stereo not shown) [1-J18, 1-(3-methanesulfonylpiperidin-1-yl)prop-2-en-1-one] | 75.0736%
O=C(CCl)Nc1ccc(S(=O)(=O)Nc2ccccc2)cc1 [5-K22, 2-chloro-N-[4-(phenylsulfamoyl)phenyl]acetamide] | 119.197%
C=CC(=O)NCCNC(=O)c1c(C)cc(C)nc1C [2-I12, N-{2-[(2,4,6-trimethylpyridin-3-yl)formamido]ethyl}prop-2-enamide] | 83.0937%
CN(C)C(=O)C(CNC(=O)CCl)c1ccccc1 (stereo not shown) [7-J12, 3-(2-chloroacetamido)-N,N-dimethyl-2-phenylpropanamide] | 78.7709%
C=CC(=O)N1CCCC1c1c(C)nn(CC(C)C)c1Cl (stereo not shown) [1-F19, 1-{2-[5-chloro-3-methyl-1-(2-methylpropyl)-1H-pyrazol-4-yl]pyrrolidin-1-yl}prop-2-en-1-one] | 85.7997%
Cc1cc(C(=O)CCl)c(C)n1CCC(C)C [10-L03, 2-chloro-1-[2,5-dimethyl-1-(3-methylbutyl)-1H-pyrrol-3-yl]ethan-1-one] | 101.305%
Cl.O=C(CCl)NCC1CN(Cc2ccccc2)CC12CCC2 (stereo not shown) [7-H03, N-({6-benzyl-6-azaspiro[3.4]octan-8-yl}methyl)-2-chloroacetamide hydrochloride] | 87.626%
COc1ccc(C=C(C#N)C(=O)Nc2cccc([N+](=O)[O-])c2)cc1 [8-I03, 2-cyano-3-(4-methoxyphenyl)-N-(3-nitrophenyl)prop-2-enamide] | 85.4521%
C=CC(=O)NC1(Cc2ccccc2)CC1 [3-P13, N-(1-benzylcyclopropyl)prop-2-enamide] | 103.558%
O=C(CCl)NC1CN(C(=O)C2CC2)C1 [6-P22, 2-chloro-N-(1-cyclopropanecarbonylazetidin-3-yl)acetamide] | 104.503%
N#CC(C(=O)CCl)=C(c1ccc(F)cc1)N1CCOCC1 [10-C20, 4-chloro-2-[(4-fluorophenyl)(morpholin-4-yl)methylidene]-3-oxobutanenitrile] | 104.111%
COc1ccc(C=C(C#N)C(=O)Nc2ccc(C)cc2)cc1O [9-O12, 2-cyano-3-(3-hydroxy-4-methoxyphenyl)-N-(4-methylphenyl)prop-2-enamide] | 89.259%
C=CC(=O)N(C)CC(=O)N1CCC[C@H](NC(=O)C(F)(F)F)[C@@H]1C (racemic) [2-A20, rac-N-methyl-N-{2-[(2R,3R)-2-methyl-3-(2,2,2-trifluoroacetamido)piperidin-1-yl]-2-oxoethyl}prop-2-enamide] | 95.7541%
CCCNC(=O)C(C#N)=Cc1ccns1 [9-G03, 2-cyano-N-propyl-3-(1,2-thiazol-5-yl)prop-2-enamide] | 98.6404%
COc1cc(C=C(C#N)C(=O)NC2CC2)ccc1O [9-G12, 2-cyano-N-cyclopropyl-3-(4-hydroxy-3-methoxyphenyl)prop-2-enamide] | 85.86%
N#CC(=Cc1ccccc1OC(F)F)C(=O)Nc1ccccc1F [8-K21, 2-cyano-3-[2-(difluoromethoxy)phenyl]-N-(2-fluorophenyl)prop-2-enamide] | 75.3909%
Cc1noc(C)c1S(=O)(=O)N1CCCN(C(=O)C(C)Cl)CC1 (stereo not shown) [7-O11, 2-chloro-1-{4-[(3,5-dimethyl-1,2-oxazol-4-yl)sulfonyl]-1,4-diazepan-1-yl}propan-1-one] | 78.6387%
